Many values rest on one well or one pass, so single values are uncertain.
Assays:
CHO-K1 [1] = experiment: hypodiploid nuclei frequency (% of nucleated events); higher = more hypodiploid events (aneugenic)
CHO-K1 [2] = experiment: relative survival (nuclei to bead ratio vs DMSO control) (% of vehicle control); higher = more surviving cells
CHO-K1 [3] = experiment: micronucleus frequency (% of nucleated events); higher = more micronuclei (genotoxic)
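Throughout, for hypodiploid nuclei frequency (% of nucleated events): hypodiploid nuclei gated on a flow cytometer with 488 nm excitation after SYTOX Green staining, cultures at 37 °C, positive controls vinblastine without S9 and cyclophosphamide with S9.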
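Throughout, for micronucleus frequency (% of nucleated events): cells lysed with nuclei stained by SYTOX Green, then micronucleus-gated events counted against nucleated events by flow cytometry with 488 nm excitation.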
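Throughout, for relative survival (nuclei to bead ratio vs DMSO control): Lysed-cell nuclei stained with SYTOX Green and counted against counting beads by flow cytometry at 488 nm excitation, with vinblastine (no S9) and cyclophosphamide (plus S9) as positive controls.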

CCOC(N)=O [Urethane]
Conditions	hypodiploid nuclei frequency, CHO-K1 [1] [%]	micronucleus frequency, CHO-K1 [3] [%]	relative survival, CHO-K1 [2]
concentration: 4.53 (µM), S9 metabolic activation: with S9, exposure time: 3-4 hours	0.22	1.64	89.4
concentration: 4.53 (µM), S9 metabolic activation: without S9, exposure time: 24 hours	4.72	1.22	98.5
concentration: 5.66 (µM), S9 metabolic activation: with S9, exposure time: 3-4 hours	0.2	1.66	93.6
concentration: 5.66 (µM), S9 metabolic activation: without S9, exposure time: 24 hours	1.84	1.2	95.2
concentration: 7.07 (µM), S9 metabolic activation: with S9, exposure time: 3-4 hours	0.4	1.54	104
concentration: 7.07 (µM), S9 metabolic activation: without S9, exposure time: 24 hours	2.6	1.48	93.6
concentration: 8.84 (µM), S9 metabolic activation: with S9, exposure time: 3-4 hours	0.3	1.48	104
concentration: 8.84 (µM), S9 metabolic activation: without S9, exposure time: 24 hours	0.7	1.14	111
concentration: 11.1 (µM), S9 metabolic activation: with S9, exposure time: 3-4 hours	0.2	1.9	105
concentration: 11.1 (µM), S9 metabolic activation: without S9, exposure time: 24 hours	0.68	1.48	113
concentration: 13.8 (µM), S9 metabolic activation: with S9, exposure time: 3-4 hours	0.24	1.84	110
concentration: 13.8 (µM), S9 metabolic activation: without S9, exposure time: 24 hours	0.62	1.12	107
concentration: 17.3 (µM), S9 metabolic activation: with S9, exposure time: 3-4 hours	0.3	1.78	107
concentration: 17.3 (µM), S9 metabolic activation: without S9, exposure time: 24 hours	0.72	0.94	101
concentration: 21.6 (µM), S9 metabolic activation: with S9, exposure time: 3-4 hours	0.1	0.8	107
concentration: 21.6 (µM), S9 metabolic activation: without S9, exposure time: 24 hours	0.62	1.3	94.1
concentration: 27 (µM), S9 metabolic activation: with S9, exposure time: 3-4 hours	0.12	0.92	88.7
concentration: 27 (µM), S9 metabolic activation: without S9, exposure time: 24 hours	0.76	1.28	95.7
concentration: 33.7 (µM), S9 metabolic activation: with S9, exposure time: 3-4 hours	0.18	1.14	84.1
concentration: 33.7 (µM), S9 metabolic activation: without S9, exposure time: 24 hours	0.56	1.1	86.4
concentration: 42.2 (µM), S9 metabolic activation: with S9, exposure time: 3-4 hours	0.22	1.28	84.9
concentration: 42.2 (µM), S9 metabolic activation: without S9, exposure time: 24 hours	0.56	1.22	94.7
concentration: 52.7 (µM), S9 metabolic activation: with S9, exposure time: 3-4 hours	0.26	1.06	91.8
concentration: 52.7 (µM), S9 metabolic activation: without S9, exposure time: 24 hours	0.52	0.96	72.4
concentration: 65.9 (µM), S9 metabolic activation: with S9, exposure time: 3-4 hours	0.16	1	81.8
concentration: 65.9 (µM), S9 metabolic activation: without S9, exposure time: 24 hours	0.74	1.2	84.7
concentration: 82.3 (µM), S9 metabolic activation: with S9, exposure time: 3-4 hours	0.22	1.18	84.1
concentration: 82.3 (µM), S9 metabolic activation: without S9, exposure time: 24 hours	0.44	1.26	95.2
concentration: 103 (µM), S9 metabolic activation: with S9, exposure time: 3-4 hours	0.14	1.14	81.8
concentration: 103 (µM), S9 metabolic activation: without S9, exposure time: 24 hours	0.5	1.46	111
concentration: 129 (µM), S9 metabolic activation: with S9, exposure time: 3-4 hours	0.18	0.94	98.8
concentration: 129 (µM), S9 metabolic activation: without S9, exposure time: 24 hours	0.8	1.52	98.5
concentration: 161 (µM), S9 metabolic activation: with S9, exposure time: 3-4 hours	0.2	1.02	79.5
concentration: 161 (µM), S9 metabolic activation: without S9, exposure time: 24 hours	0.92	1.52	93.6
concentration: 201 (µM), S9 metabolic activation: with S9, exposure time: 3-4 hours	0.18	1.16	86.2
concentration: 201 (µM), S9 metabolic activation: without S9, exposure time: 24 hours	0.82	1.8	89.2

Cl[C@H]1[C@H](Cl)[C@@H](Cl)[C@H](Cl)[C@@H](Cl)[C@@H]1Cl [beta-Hexachlorocyclohexane]
Conditions	hypodiploid nuclei frequency, CHO-K1 [1] [%]	micronucleus frequency, CHO-K1 [3] [%]	relative survival, CHO-K1 [2]
concentration: 4.5 (µM), S9 metabolic activation: with S9, exposure time: 3-4 hours	0.22	1.52	152
concentration: 4.5 (µM), S9 metabolic activation: without S9, exposure time: 24 hours	0.42	1.82	135
concentration: 5.63 (µM), S9 metabolic activation: with S9, exposure time: 3-4 hours	0.2	1.08	138
concentration: 5.63 (µM), S9 metabolic activation: without S9, exposure time: 24 hours	0.66	3.68	110
concentration: 7.04 (µM), S9 metabolic activation: with S9, exposure time: 3-4 hours	0.28	1.12	118
concentration: 7.04 (µM), S9 metabolic activation: without S9, exposure time: 24 hours	0.7	2.9	116
concentration: 8.8 (µM), S9 metabolic activation: with S9, exposure time: 3-4 hours	0.26	1.4	140
concentration: 8.8 (µM), S9 metabolic activation: without S9, exposure time: 24 hours	0.44	2.36	108
concentration: 11 (µM), S9 metabolic activation: with S9, exposure time: 3-4 hours	0.18	1.38	158
concentration: 11 (µM), S9 metabolic activation: without S9, exposure time: 24 hours	0.64	2.26	130
concentration: 13.7 (µM), S9 metabolic activation: with S9, exposure time: 3-4 hours	0.26	1.58	149
concentration: 13.7 (µM), S9 metabolic activation: without S9, exposure time: 24 hours	0.8	2.46	104
concentration: 17.2 (µM), S9 metabolic activation: with S9, exposure time: 3-4 hours	0.16	2.04	149
concentration: 17.2 (µM), S9 metabolic activation: without S9, exposure time: 24 hours	0.44	2.76	103
concentration: 21.5 (µM), S9 metabolic activation: with S9, exposure time: 3-4 hours	0.16	1.1	130
concentration: 21.5 (µM), S9 metabolic activation: without S9, exposure time: 24 hours	0.7	2.26	101
concentration: 26.8 (µM), S9 metabolic activation: with S9, exposure time: 3-4 hours	0.3	1.34	230
concentration: 26.8 (µM), S9 metabolic activation: without S9, exposure time: 24 hours	0.92	0.94	160
concentration: 33.6 (µM), S9 metabolic activation: with S9, exposure time: 3-4 hours	0.24	1.34	159
concentration: 33.6 (µM), S9 metabolic activation: without S9, exposure time: 24 hours	0.76	1.56	135
concentration: 41.9 (µM), S9 metabolic activation: with S9, exposure time: 3-4 hours	0.16	1.86	156
concentration: 41.9 (µM), S9 metabolic activation: without S9, exposure time: 24 hours	0.54	1.52	128
concentration: 52.4 (µM), S9 metabolic activation: with S9, exposure time: 3-4 hours	0.22	1.26	133
concentration: 52.4 (µM), S9 metabolic activation: without S9, exposure time: 24 hours	0.46	1.68	124
concentration: 65.5 (µM), S9 metabolic activation: with S9, exposure time: 3-4 hours	0.22	1.82	124
concentration: 65.5 (µM), S9 metabolic activation: without S9, exposure time: 24 hours	1.12	1.84	98.6
concentration: 81.9 (µM), S9 metabolic activation: with S9, exposure time: 3-4 hours	0.38	1.66	144
concentration: 81.9 (µM), S9 metabolic activation: without S9, exposure time: 24 hours	1.16	2.18	130
concentration: 102 (µM), S9 metabolic activation: with S9, exposure time: 3-4 hours	0.3	1.74	158
concentration: 102 (µM), S9 metabolic activation: without S9, exposure time: 24 hours	0.8	1.76	101
concentration: 128 (µM), S9 metabolic activation: with S9, exposure time: 3-4 hours	0.26	1.78	137
concentration: 128 (µM), S9 metabolic activation: without S9, exposure time: 24 hours	0.9	1.96	125
concentration: 160 (µM), S9 metabolic activation: with S9, exposure time: 3-4 hours	0.32	1.62	136
concentration: 160 (µM), S9 metabolic activation: without S9, exposure time: 24 hours	0.94	2.64	97.4
concentration: 200 (µM), S9 metabolic activation: with S9, exposure time: 3-4 hours	0.28	1.28	117
concentration: 200 (µM), S9 metabolic activation: without S9, exposure time: 24 hours	1.26	1.8	94.6

Cc1ccc(O)cc1 [p-Cresol]
Conditions	hypodiploid nuclei frequency, CHO-K1 [1] [%]	micronucleus frequency, CHO-K1 [3] [%]	relative survival, CHO-K1 [2]
concentration: 4.48 (µM), S9 metabolic activation: with S9, exposure time: 3-4 hours	0.32	1.52	102
concentration: 4.48 (µM), S9 metabolic activation: without S9, exposure time: 24 hours	0.94	1.78	114
concentration: 5.6 (µM), S9 metabolic activation: with S9, exposure time: 3-4 hours	0.24	0.98	101
concentration: 5.6 (µM), S9 metabolic activation: without S9, exposure time: 24 hours	0.82	2.26	119
concentration: 7 (µM), S9 metabolic activation: with S9, exposure time: 3-4 hours	0.18	1.38	128
concentration: 7 (µM), S9 metabolic activation: without S9, exposure time: 24 hours	0.66	1.64	108
concentration: 8.75 (µM), S9 metabolic activation: with S9, exposure time: 3-4 hours	0.24	1.44	129
concentration: 8.75 (µM), S9 metabolic activation: without S9, exposure time: 24 hours	0.6	1.48	88.4
concentration: 10.9 (µM), S9 metabolic activation: with S9, exposure time: 3-4 hours	0.28	1.3	119
concentration: 10.9 (µM), S9 metabolic activation: without S9, exposure time: 24 hours	0.82	1.88	118
concentration: 13.7 (µM), S9 metabolic activation: with S9, exposure time: 3-4 hours	0.22	1.3	95
concentration: 13.7 (µM), S9 metabolic activation: without S9, exposure time: 24 hours	0.88	2.14	143
concentration: 17.1 (µM), S9 metabolic activation: with S9, exposure time: 3-4 hours	0.28	1.18	108
concentration: 17.1 (µM), S9 metabolic activation: without S9, exposure time: 24 hours	0.68	1.68	123
concentration: 21.4 (µM), S9 metabolic activation: with S9, exposure time: 3-4 hours	0.3	1.34	118
concentration: 21.4 (µM), S9 metabolic activation: without S9, exposure time: 24 hours	0.6	2.26	120
concentration: 26.7 (µM), S9 metabolic activation: with S9, exposure time: 3-4 hours	0.38	1.98	99.6
concentration: 26.7 (µM), S9 metabolic activation: without S9, exposure time: 24 hours	1	1.9	116
concentration: 33.4 (µM), S9 metabolic activation: with S9, exposure time: 3-4 hours	0.18	0.96	122
concentration: 33.4 (µM), S9 metabolic activation: without S9, exposure time: 24 hours	0.64	2.16	119
concentration: 41.7 (µM), S9 metabolic activation: with S9, exposure time: 3-4 hours	0.14	1.42	103
concentration: 41.7 (µM), S9 metabolic activation: without S9, exposure time: 24 hours	0.94	2.2	106
concentration: 52.2 (µM), S9 metabolic activation: with S9, exposure time: 3-4 hours	0.14	1.18	81.1
concentration: 52.2 (µM), S9 metabolic activation: without S9, exposure time: 24 hours	1.14	2.38	86.2
concentration: 65.2 (µM), S9 metabolic activation: with S9, exposure time: 3-4 hours	0.28	1.7	94.8
concentration: 65.2 (µM), S9 metabolic activation: without S9, exposure time: 24 hours	0.78	1.92	82.5
concentration: 81.5 (µM), S9 metabolic activation: with S9, exposure time: 3-4 hours	0.14	1.56	108
concentration: 81.5 (µM), S9 metabolic activation: without S9, exposure time: 24 hours	1.14	2.5	83.8
concentration: 102 (µM), S9 metabolic activation: with S9, exposure time: 3-4 hours	0.3	1.12	105
concentration: 102 (µM), S9 metabolic activation: without S9, exposure time: 24 hours	1.64	2.98	89.2
concentration: 127 (µM), S9 metabolic activation: with S9, exposure time: 3-4 hours	0.24	1.28	70.7
concentration: 127 (µM), S9 metabolic activation: without S9, exposure time: 24 hours	1.44	3.2	115
concentration: 159 (µM), S9 metabolic activation: with S9, exposure time: 3-4 hours	0.28	1.64	81
concentration: 159 (µM), S9 metabolic activation: without S9, exposure time: 24 hours	1.78	4.04	81.8
concentration: 199 (µM), S9 metabolic activation: with S9, exposure time: 3-4 hours	0.28	2.18	68.6
concentration: 199 (µM), S9 metabolic activation: without S9, exposure time: 24 hours	1.9	5.42	76.6
